Drawing on US20220220204A1 (published 2022), this text covers EC50 for two molecules.

Like-named read-outs stand apart in the source and are kept apart here.

What all share (assay): FACS binding
Experiment [1] deals with T1, PD-L1 expressed on CHO-K1 cells (UniProt Q9NZQ7).
For experiment [2], the target named is T2, LAG-3 expressed on CHO-K1 cells (UniProt P18627 23-525).
T2 chain: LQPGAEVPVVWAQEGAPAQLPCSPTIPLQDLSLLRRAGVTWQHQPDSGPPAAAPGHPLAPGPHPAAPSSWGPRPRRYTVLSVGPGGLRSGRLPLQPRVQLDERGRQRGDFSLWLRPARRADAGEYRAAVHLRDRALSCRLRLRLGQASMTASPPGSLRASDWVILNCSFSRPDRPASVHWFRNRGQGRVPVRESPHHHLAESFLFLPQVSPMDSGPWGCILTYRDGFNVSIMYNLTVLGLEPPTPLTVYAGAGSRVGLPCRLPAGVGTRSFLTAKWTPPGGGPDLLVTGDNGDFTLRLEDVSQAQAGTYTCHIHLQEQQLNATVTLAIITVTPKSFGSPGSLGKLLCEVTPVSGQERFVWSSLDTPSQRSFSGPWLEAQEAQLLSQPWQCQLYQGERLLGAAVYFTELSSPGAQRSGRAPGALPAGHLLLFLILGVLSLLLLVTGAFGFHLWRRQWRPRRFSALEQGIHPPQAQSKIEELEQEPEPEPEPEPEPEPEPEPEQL

Experiment [3] addresses T1, PD-L1 expressed on CHO-K1 cells. The source holds these as a separate data set.
Experiment [4] concerns the target T2, LAG-3 expressed on CHO-K1 cells.

T1 sequence (Q9NZQ7 19-290): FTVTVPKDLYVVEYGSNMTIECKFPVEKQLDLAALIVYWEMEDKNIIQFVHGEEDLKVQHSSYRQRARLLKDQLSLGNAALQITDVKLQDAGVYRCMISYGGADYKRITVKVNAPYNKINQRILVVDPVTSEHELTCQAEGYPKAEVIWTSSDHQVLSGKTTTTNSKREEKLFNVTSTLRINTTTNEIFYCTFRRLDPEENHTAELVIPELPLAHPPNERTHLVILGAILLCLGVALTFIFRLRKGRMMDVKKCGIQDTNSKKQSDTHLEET

B1: sLAG3-E-mPDL1LCv1-HCv1 (bispecific antibody)
light: EVQLVESGGGLVQPGGSLRLSCAASGYTVSSYCMGWFRQAPGKGREGVSAIDSDGSVSYADSVKGRFTISKDNSKNTLYLQMNSLRAEDTAVYFCAADLCWVDQDQGEYNTWGQGTLVTVSSEPKSSDKTHTSPPSPDIQMTQSPSSLSASVGDRVTITCRASQDVSTAVDWYQQKPGKAPKLLIYSASYRYTGVPDRFSGSGSGTDFTFTISSLQPEDIATYYCQQHYSIPFTFGQGTKLEIKRTVAAPSVFIFPPSDEQLKSGTASVVCLLNNFYPREAKVQWKVDNALQSGNSQESVTEQDSKDSTYSLSSTLTLSKADYEKHKVYACEVTHQGLSSPVTKSFNRGEC
heavy: EVQLVQSGAEVKKPGASVKVSCKASGYIFTGYGITWVRQAPGQGLEWMGEIFPRRVQTYYSEKFKGRVTMTTDTSTSTAYMELRSLRSDDTAVYYCARDYDPYFALDYWGQGTTVTVSSASTKGPSVFPLAPSSKSTSGGTAALGCLVKDYFPEPVTVSWNSGALTSGVHTFPAVLQSSGLYSLSSVVTVPSSSLGTQTYICNVNHKPSNTKVDKKV[letters of human IgG1 Fc with changes not shown]
Take B1: the EC50 in experiment [1] was found to be 0.697 nM; in experiment [2] it was 0.239 nM; in experiment [3], 0.535 nM; in experiment [4] it was 0.119 nM.

B2: mPDL1LCv1-E-sLAG3-HCv1 (bispecific antibody)
light: DIQMTQSPSSLSASVGDRVTITCRASQDVSTAVDWYQQKPGKAPKLLIYSASYRYTGVPDRFSGSGSGTDFTFTISSLQPEDIATYYCQQHYSIPFTFGQGTKLEIKRTVAAPSVFIFPPSDEQLKSGTASVVCLLNNFYPREAKVQWKVDNALQSGNSQESVTEQDSKDSTYSLSSTLTLSKADYEKHKVYACEVTHQGLSSPVTKSFNRGECEPKSSDKTHTSPPSPEVQLVESGGGLVQPGGSLRLSCAASGYTVSSYCMGWFRQAPGKGREGVSAIDSDGSVSYADSVKGRFTISKDNSKNTLYLQMNSLRAEDTAVYFCAADLCWVDQDQGEYNTWGQGTLVTVSS
heavy: EVQLVQSGAEVKKPGASVKVSCKASGYIFTGYGITWVRQAPGQGLEWMGEIFPRRVQTYYSEKFKGRVTMTTDTSTSTAYMELRSLRSDDTAVYYCARDYDPYFALDYWGQGTTVTVSSASTKGPSVFPLAPSSKSTSGGTAALGCLVKDYFPEPVTVSWNSGALTSGVHTFPAVLQSSGLYSLSSVVTVPSSSLGTQTYICNVNHKPSNTKVDKKV[letters of human IgG1 Fc with changes not shown]
Consider B2, for which the EC50 in experiment [1] stood at 0.114 nM; in experiment [2] it was 0.561 nM; in experiment [3], 0.239 nM; in experiment [4], 0.0437 nM.
